Some of the results follow.
These sequences were tested on PF3D7_0420300 AP2 domain 1 (GST-tagged) (assay: gcPBM binding intensity (ln(normalized median fluorescence intensity)); higher = stronger DNA binding).
How it was run: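 An Agilent 4 × 180k array carrying primer-extended double-stranded 36-bp intergenic genomic probes and negative controls received GST-tagged P. falciparum DNA-binding domains expressed in E. coli, about 25 μg on average, for 1 h. The binding buffer contained 1× PBS, 1% milk, 0.2 mg/ml BSA, 0.5% salmon testes DNA and 0.03% Triton X-100. Binding intensity is the top Masliner-normalised natural-log median intensity across replicate spots of either probe orientation, read after Alexa488 anti-GST antibody staining and a 488 nm scan.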

Sequence	gcPBM binding intensity (ln)
TTTATAAAGAAACACACACACATGTGAACATAAAAA [CACACA_site1908]	9.92
GTGTAAATAAGGATATATAACAATCAACAAAACATA [CACACA_negctrl_site1759]	9.61
TGTATGAAATATATTACACACATATATAATATATAT [CACACA_site793]	9.44
ATATTTTTCAAACATCGTACATTATGAGTTAAAATT [XGTACX_site584]	9.1
ATACACAAAATTATTAAATCAATAAATATATGGTTT [CACACA_negctrl_site353]	9.28
CATTAATATATATATACATGCACGTTTTAAAAAAAA [TGCATGCA_site875]	9.12
TAATTATGCAGACACACACACACACGCAACTAAAAA [CACACA_site7253]	10.1
ATGGGAATATAATTATGTACATATAAAAATTATAAA [XGTACX_site5336]	9.21
TCATTTCACGGACACACACACACAATATATTTCCTT [CACACA_site6023]	10.2
AAAAAATATTTTTACAGTACATATATATAAAATGTT [XGTACX_site3215]	9.19
TAACAAAGGAAAGATATACACACGTATGCATGATAA [CACACA_site2520]	9.68
TTTTTATTACATAATTAAAAAAAATAATAAAATAAA [XGTACX_negctrl_site249]	8.79
ATATATATATATTTATGTACTTAATAATTTATTCAC [XGTACX_site7301]	9.2
TTTTTTTTTTAATTCGCACACTGTCTTCATACAATT [CACACA_site1379]	9.49
TGCAGTCTGGAGAAAAGTACATAGTATCTGGTAACC [XGTACX_site2019]	9.11
TACATACATACATACACACACACATATATATACATA [CACACA_site853]	10.1
ATATCATTAAAAGGATGTACATATGTGTATACAATA [XGTACX_site871]	9.34
TAAAAAATATAAACTGCACACACAAAAAAAAAAGAG [CACACA_site8379]	10.2
AATTTAAAATAATATTGTACTTAGATATAAATATGA [XGTACX_site4198]	9.01
ATGGTACACAAATATACATGCAATAATAAAAAAAAA [TGCATGCA_site879]	9.26
ATAATAATATATATTACACACGCATCGTTCATTTAT [CACACA_site8752]	9.62
ATTAATATATATGGATGTACTTATGTATGTATGCAT [XGTACX_site2263]	9.39

Sequence	gcPBM binding intensity (ln)
GGAAAAACCATTCGCACACACACATAATATATAATA [CACACA_site1424]	9.85
CATGTATAATATAATACACACTATATAATATACACC [CACACA_site5267]	9.59
TATTTATATGGACACACACACATATAAATAAATAAA [CACACA_site6346]	9.93
TCTTACTAATATCGCACACACATATGTAGACGGGAT [CACACA_site87]	9.62
TATTGACAAAATAGCTGTACAAATTAAAAGAAATAA [XGTACX_site4415]	9.23
ATGGCCATAATATAGACACACATATATAAATATATA [CACACA_site2230]	9.28
CGATATGTTCAATATTGTACTATTTATAATAATATG [XGTACX_site3051]	9.09
CTTAAAAAAAAAAAATGTACACATAAAAAAAATACA [XGTACX_site6700]	9.43
TTATTGTCTTCTCATATACACACTTTTATGACTATC [CACACA_site3142]	9.57
TTTAATTGATAATGAAGACAATTATATGCATCCAAA [TGCATGCA_negctrl_site138]	9.01
TAAATAAGGAAGGAAACACACATTAAAAAATAAATA [CACACA_site618]	9.63
AACAGAAGCACATACACACACTCAAAAAAAAAAAAA [CACACA_site5652]	9.57
TTTTTAAATTATTTGAAAAAAAGAAAATTATAAACA [CACACA_negctrl_site1599]	8.72
ATTTTATTCTAAAAAGGTACACATATTATTTTATGA [XGTACX_site7233]	8.89
TATATTTTCTATAGGTGTACTCCACATGCGGTGTTA [XGTACX_site7471]	9.08
ATATTGATACATCCAATACACACTACATATAATGAT [CACACA_site1874]	9.54
AAACATCTTTACAACGTCCCTCCTTTTTTATGTACC [GTGCAC_negctrl_site528]	9.47
AATATATATAAATATTGTACAAAAATATATATATAT [XGTACX_site2910]	9.26
TCCCTCTTTTTATTCTCACACACGTTTATATATAAA [CACACA_site1644]	9.76
ATATATGATGTAAAAGCACACATATATATATATATA [CACACA_site9330]	9.21
TATATAAACATATAAACATGCAATATATATATGTTA [TGCATGCA_site765]	9.34
GGAAAAAAACTTATGAGTACACATAAATATAGCACA [XGTACX_site6686]	9.29

Sequence	gcPBM binding intensity (ln)
AAAAATATATAACAAAGTACATATATATTTAGTAAT [XGTACX_site8791]	9.32
AAAAAAATTAAATCAAGTACTCATTCTTAAATTATA [XGTACX_site1274]	8.99
AAATTAAAAAGACATTCACACATTTTCATCTTAACA [CACACA_site5221]	9.18
AAACATATATATATTATATATATATATATATATATG [GTGCAC_negctrl_site182]	9.02
TAACATATAATATTCACACACATATATATATTATAT [CACACA_site988]	9.61
TGTAGGTATTATTATACACACATAAAAAAAAAAAAA [CACACA_site3598]	9.36
TAAAATATTATAAAATGTACAAAACATATAAATATA [XGTACX_site5315]	9.29
TATTATTATCTTACCACACACAATGTACGAAAAGAT [CACACA_site352]	9.61
GTACAAATGTTGTGTATATATACACACATACATATA [XGTACX_negctrl_site276]	9.49
AACTTACTTGGACATACACACATATAGATTTATATA [CACACA_site7412]	9.72
ATGTAGTTTTATCAGTGTACAAGTATTTTATCACAT [XGTACX_site8958]	9.4
TTATTTATAAATATTAATTTTTTTTTTTTTTTTTTT [XGTACX_negctrl_site105]	8.81
TTTTATGTTTCAAAATGTACATTAAAATATACCATA [XGTACX_site1713]	9.01
AAAATATATATATATATATATATATGTATACTCCTA [XGTACX_negctrl_site312]	9.19
CATATGCATACTATACGTACATATGTATATAATATA [XGTACX_site7738]	9.18
ATATATATATTTTTTAAACACACACCGAAATATTTG [CACACA_site8937]	9.64
TTAATTAAAACGAATACACACATAAATATATAAAAG [CACACA_site1254]	9.84
TTTTATTATTGAATACTAGTATATATAATATGAAGA [CACACA_negctrl_site910]	8.99
AATATAATATAATGCACACATAAAAAAAAAATCAAA [CACACA_site122]	9.62
TTTTTATATAACCTTCTTAATTCTTTTTTTTTTTTT [XGTACX_negctrl_site591]	9.2
AAAACAAAATTATGAACATGCAAGGTAAAATTGTAA [TGCATGCA_site775]	9.65
TATGATGATATAAAAACACACACATATAATATAATA [CACACA_site8321]	9.8

Sequence	gcPBM binding intensity (ln)
TTAAAGCTTACATATACACACATACATAAATTCATA [CACACA_site8785]	9.59
TTTTGATCATCCAAAATATCTTCATCTGAACTACTA [CACACA_negctrl_site939]	9.08
GTAAAATAAAATATATGTACATATGTATATGAGGTA [XGTACX_site3743]	9.5
TACCCTGATCGGCATGCATGTAAGTAACAAATATAT [TGCATGCA_site153]	9.22
ATTCAAACAAATTAATGTACATATATATAAGATATT [XGTACX_site1531]	9.23
ATTTAGAAATATATTTGTACATATATATATATATAT [XGTACX_site7129]	9.15
CTACATATTAATATATGTACATATTAATATATCTAA [XGTACX_site7118]	8.98
ATAAAAAGAAAAAAGGGTACACTATACTATTTAAAA [XGTACX_site4467]	9.34
ATATATACATATAAATGTACATAATTATTATGCACA [XGTACX_site1261]	9.15
TGTTGATAAAAAATAAAAAATAAAAAAATAAAATAT [TGCATGCA_negctrl_site559]	9.35
TATATATATATGTGCACACATAATAAAAAAAAAAAT [CACACA_site3831]	9.7
TTTTATTTTATTCTTAAATAAGTATTATAAAATATG [XGTACX_negctrl_site201]	8.83
TATAAAGCATATTAAAGTACTTATTTTCCTTTTTCT [XGTACX_site8892]	9.1
TTATTTGAACAATATGCACACATTTTATTTATTTTA [CACACA_site3420]	9.46
TTAATGTTGTATGGTTGTACAATAAGCCCCTTTTAA [XGTACX_site2484]	9.07
CAAAATATTTATATCACACATATAAATAAAAATAAA [CACACA_site6028]	9.19
ATTAACATTTTCGTATGTACATATATAATATATGTT [XGTACX_site7184]	9.4
AATAAAAATAAAAATTGTACACTTTTTTAATATTTA [XGTACX_site892]	9.01
ATGTTTATTTATTTATGTACTTATATATTTATATAT [XGTACX_site7924]	9.58
TTTCCAAATACAACTACACACAAACAAAAATTATAT [CACACA_site4641]	9.79
AATGTGCACACGCGTACACACAAAAAAAGAAAAAAA [CACACA_site7031]	9.62
TATTATTTGAGTAGTTGTACTCATTAATATATAAAA [XGTACX_site3468]	8.9
